To fix the notation:
T1: RBFOX1 RRM RbFoxmut (Fox-RRM*) (Homo sapiens, UniProt Q9NWB1 109-208, R118D;E147R;N151S;E152T)
T1 sequence: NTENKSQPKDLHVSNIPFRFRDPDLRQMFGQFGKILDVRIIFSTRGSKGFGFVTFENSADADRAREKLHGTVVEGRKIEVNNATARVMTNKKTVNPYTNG

B1: AUUACAU (DNA:RNA)
RNA: GGGAGACCGGAAUUCAGAUUGUCCAUUACAUUUAAAUCCCGUCGUAGCCACCA
DNA 1: CAATCTGAATTCCGGTCTCCC
DNA 2: TGGTGGCTACGACGGGATT
B2: GUGUGUU (DNA:RNA)
RNA: B1 RNA with A25G, U27G, A28U, C29G, A30U
DNA 1: CAATCTGAATTCCGGTCTCCC
DNA 2: TGGTGGCTACGACGGGATT
B3: UAAUUCU (DNA:RNA)
RNA: B1 RNA with A25U, U26A, U27A, A28U, C29U, A30C
DNA 1: CAATCTGAATTCCGGTCTCCC
DNA 2: TGGTGGCTACGACGGGATT
B4: AACUUUU (DNA:RNA)
RNA: B1 RNA with U26A, U27C, A28U, C29U, A30U
DNA 1: CAATCTGAATTCCGGTCTCCC
DNA 2: TGGTGGCTACGACGGGATT
B5: UUAUUGG (DNA:RNA)
RNA: B1 RNA with A25U, U27A, A28U, C29U, A30G, U31G
DNA 1: CAATCTGAATTCCGGTCTCCC
DNA 2: TGGTGGCTACGACGGGATT
B6: UCUUCCC (DNA:RNA)
RNA: B1 RNA with A25U, U26C, A28U, A30C, U31C
DNA 1: CAATCTGAATTCCGGTCTCCC
DNA 2: TGGTGGCTACGACGGGATT
B7: GUUCUCU (DNA:RNA)
RNA: B1 RNA with A25G, A28C, C29U, A30C
DNA 1: CAATCTGAATTCCGGTCTCCC
DNA 2: TGGTGGCTACGACGGGATT
B8: AUUUCUU (DNA:RNA)
RNA: B1 RNA with A28U, A30U
DNA 1: CAATCTGAATTCCGGTCTCCC
DNA 2: TGGTGGCTACGACGGGATT
B9: AUUUUGA (DNA:RNA)
RNA: B1 RNA with A28U, C29U, A30G, U31A
DNA 1: CAATCTGAATTCCGGTCTCCC
DNA 2: TGGTGGCTACGACGGGATT

Changes are numbered by the printed parent chain; changes in the protein carry UniProt numbers. The list shows a part of the results.

This experiment deals with T1, RBFOX1 RRM RbFoxmut (Fox-RRM*). Description: EMSA; HiTS-Eq, 1 nM pool, 10 min; buffer printed only for the single-RNA assays: 10 mM Tris pH 7.5, 150 mM NaCl, 3.4 mM EDTA, 0.001% NP-40, 30 C. Conditions: tags: His6 N-terminal (pET28a); label: 5' 32P. Summed up: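 A pool of RNA with 7 randomized nucleotides, 5′-radiolabelled and with DNA-annealed flanks, was equilibrated at 1 nM for 10 min in 50 µL with purified RbFox RRM, wild type or mutant, across increasing protein concentrations. Free RNA was separated by 8% native PAGE, excised, reverse-transcribed, barcoded by PCR and sequenced. Relative association constants were obtained from read-count changes of each RNA species versus the control reaction and normalised to the cognate motif.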
Background: In EMSA bound probe runs differently from free probe, usually more slowly.
On to B1, for which the binding signal is 0.0878 KA relative to UGCAUGU. Turning to B2, the binding signal is 0.184 KA relative to UGCAUGU. Consider B3, for which the binding signal was 0.0702 KA relative to UGCAUGU. Next, B4: 0.0643 KA relative to UGCAUGU. With B5 the figure was 0.0921 KA relative to UGCAUGU; with B6, 0.0652 KA relative to UGCAUGU. As for B7, the binding signal is 0.0707 KA relative to UGCAUGU.

Take B8: the binding signal is 0.103 KA relative to UGCAUGU.

On to B9, for which the binding signal was 0.0954 KA relative to UGCAUGU.

These data come from publication PMC9911399, “Two distinct binding modes provide the RNA-binding protein RbFox with extraordinary sequence specificity”.
